First the molecules themselves.
B1: CBL peptide 538-553 (E3 ubiquitin-protein ligase CBL), 16-mer library wild type / YES SH3 (YES1 SH3 domain, residues 90-152) (parent)
chain 1: TLRDLPPPPPPDRPYS
chain 2: TGGVTIFVALYDYEARTTEDLSFKKGERFQIINNTEGDWWEARSIATGKNGYIPSNYVAPADS

Variants of B1 are the subject of this assay. Nature of the assay: proteomic peptide phage display deep mutational scan (ProP-PD DMS): M13 P8 16-mer library selected against immobilised GST-tagged bait for four days (rounds), NGS of the eluted pools per day and pseudo-replica. The settings on record: with YES SH3 (YES1 SH3 domain, residues 90-152); bait immobilised on MaxiSorp plates (10 µg), library pre-cleared on GST, 2 h binding at 4 °C, five washes; one round per day, days 1-4; value from days 2 and 3; keep out of graded; scale: average fractional NGS count over selection days 2 and 3.
In the case of chain 1 D4E, the screen value worked out at 8.57e-06. Regarding chain 1 D4G, the screen value was 2.72e-05. For the variant chain 1 D4W, the screen value amounted to 4.74e-05. For chain 1 P10K, the screen value turned out to be 3.27e-05. As to chain 1 P10G, the screen value is 8.48e-05. On to chain 1 Y15D, for which the screen value is 4.71e-05. Consider chain 1 Y15P, for which the screen value amounted to 4.16e-05. For the variant chain 1 P7R, the screen value was found to be 3.48e-05. For chain 1 P7W, the screen value worked out at 3.04e-05. With chain 1 R3Q, the screen value is 2.27e-05. For chain 1 P9G, the screen value was determined as 0. Take chain 1 P9M: the screen value was found to be 2.35e-05.

For the variant chain 1 P9W, the screen value amounted to 9.84e-06. In the case of chain 1 P9D, the screen value was determined as 1.57e-05. With chain 1 P9E the figure was 0. Then chain 1 P9Y, with 3.7e-05. chain 1 S16N: the screen value is 1.56e-05.

chain 1 P8W: the screen value is 8.17e-06. Turning to chain 1 P8S, the screen value came to 6.56e-06.

chain 1 P8Q: the screen value is 1.71e-05. For chain 1 P8H, the screen value turned out to be 2.11e-05. For chain 1 L5S, the screen value was determined as 0.

In the case of chain 1 L5E, the screen value was found to be 0. Then chain 1 L5T, with 2.68e-05; and chain 1 L5N, with 2.47e-05; and chain 1 L5K, with 2.53e-05. For the variant chain 1 L5A, the screen value was found to be 7.44e-05. For chain 1 L5R, the screen value is 1.9e-05.

Consider chain 1 D12F, for which the screen value was determined as 5.86e-05. As to chain 1 L2S, the screen value was 7.5e-05.

Consider chain 1 R13D, for which the screen value turned out to be 0. With chain 1 P14N, the screen value came out at 5.37e-05. chain 1 P14K: the screen value is 3.6e-05. Take chain 1 P14R: the screen value was 0.

As for chain 1 P6E, the screen value is 0. On to chain 1 P6L, for which the screen value was 4.11e-05. As for chain 1 P6Y, the screen value worked out at 2.33e-05. As to chain 1 P6V, the screen value stood at 3.4e-05.

Turning to chain 1 P6A, the screen value was 1.8e-05. Turning to chain 1 P6Q, the screen value came out at 4.77e-05. For the variant chain 1 P6K, the screen value is 3.1e-05. Consider chain 1 P6F, for which the screen value worked out at 0. On to chain 1 P6I, for which the screen value amounted to 4.35e-05. As to chain 1 P6D, the screen value turned out to be 0. In the case of chain 1 P6R, the screen value is 3.94e-05.

The values above are taken from article PMC12102759.
